# Data reported in the supplement of paper PMC3334620.
# The full ranking holds about 33,000 sequences; the median of “E-score (-0.5 to 0.5)” is about -0.012, and the highest 2% start at about 0.29. The list shows a part of the results.
# Target: T1, Ybr033w (UniProt P38073)
# T1 sequence: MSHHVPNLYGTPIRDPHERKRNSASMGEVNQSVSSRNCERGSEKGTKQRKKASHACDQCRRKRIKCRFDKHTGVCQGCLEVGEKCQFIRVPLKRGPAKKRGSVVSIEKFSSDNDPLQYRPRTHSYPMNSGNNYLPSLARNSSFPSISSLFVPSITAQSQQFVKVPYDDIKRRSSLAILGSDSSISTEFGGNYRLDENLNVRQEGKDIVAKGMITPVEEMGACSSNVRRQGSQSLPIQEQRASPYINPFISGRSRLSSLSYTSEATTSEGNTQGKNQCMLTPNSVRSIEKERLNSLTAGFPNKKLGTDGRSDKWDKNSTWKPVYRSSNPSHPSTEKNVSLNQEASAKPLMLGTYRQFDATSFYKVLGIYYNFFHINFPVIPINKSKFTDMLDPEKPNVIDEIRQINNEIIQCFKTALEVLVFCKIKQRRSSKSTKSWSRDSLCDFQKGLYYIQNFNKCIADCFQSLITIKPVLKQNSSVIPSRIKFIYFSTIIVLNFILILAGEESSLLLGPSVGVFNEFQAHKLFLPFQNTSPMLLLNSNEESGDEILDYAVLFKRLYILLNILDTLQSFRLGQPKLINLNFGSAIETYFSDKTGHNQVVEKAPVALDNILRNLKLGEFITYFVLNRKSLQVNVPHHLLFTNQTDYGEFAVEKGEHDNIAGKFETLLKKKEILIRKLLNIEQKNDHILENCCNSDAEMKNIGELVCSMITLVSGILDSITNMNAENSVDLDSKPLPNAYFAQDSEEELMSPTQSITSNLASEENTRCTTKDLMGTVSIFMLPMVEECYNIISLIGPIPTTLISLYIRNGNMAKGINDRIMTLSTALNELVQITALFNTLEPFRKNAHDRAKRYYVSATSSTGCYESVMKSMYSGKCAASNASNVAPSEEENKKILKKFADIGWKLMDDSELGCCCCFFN
# Assay: PBM E-score (8-mer binding enrichment) (E-score (-0.5 to 0.5)); higher = stronger / more preferred TF binding; most listed sequences are background and not binding sites
# Settings: protein concentration: 200 nM; construct: GST-full length
# How it was run: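 Detection of bound protein used fluorescent anti-GST, with scans normalised by masliner. The proteins were GST-tagged yeast transcription factors applied at about 100-200 nM to universal all-10-mer Agilent arrays made double-stranded by primer extension. Each ungapped eight-base word, pooled with its reverse complement, was scored with an E-score from the Universal PBM Analysis Suite.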
row,Sequence,PBM E-score
1,ATCCCGTG,-0.0178
2,AACATATC,0.25
3,GCTCGGGA,-0.109
4,CGGGAGAC,-0.142
5,GGCATGGA,0.0291
6,ATCCATTG,0.137
7,CTGAATGC,-0.0244
8,AGCGCCAG,-0.147
9,CCTGTCAA,-0.197
10,ACTCAGGC,0.0484
11,GTTATGTA,-0.0248
12,AGCACCCT,-0.199
13,AAAAGTAT,0.13
14,AAGGAACC,0.079
15,ATTTGAGA,0.0619
16,ACGGCGTA,0.0688
17,GTGTTCTA,0.226
18,AGCAAGCT,-0.0641
19,AGAAGTGC,-0.133
20,AATCAACC,0.113
21,AACCTCGA,0.0493
22,CTAAGAGC,-0.245
23,ACTCACCA,0.0658
24,ACGCTGAG,-0.223
25,AAGACCCC,-0.184

row,Sequence,PBM E-score
1,AAAATACC,0.315
2,CGAATCAC,-0.0744
3,TAATGGAA,0.184
4,CTTTTCTA,0.0222
5,ACGATGAT,0.155
6,AGGTGGAT,-0.108
7,ATCAGTTA,0.22
8,TAGACTGA,-0.0874
9,CTTCTAAA,0.144
10,GTTCGGCA,0.0546
11,CGATCCAG,-0.0701
12,CACTCCTA,0.0521
13,GGGTACTA,0.0512
14,AACGTTAG,0.00362
15,CGTGGCGA,-0.161
16,ATAAAAAA,0.164
17,TCCGCACA,0.0373
18,CGGTTCAC,-0.285
19,CTAAATTC,0.204
20,AAGCGGAT,-0.127
21,AAGACGTA,0.0539
22,GACTAAGA,-0.0211
23,ATGAGGTA,0.0374
24,GTGTCTGA,0.0974
25,GCAACATA,-0.00926

row,Sequence,PBM E-score
1,AGTGGCGA,-0.142
2,CGGAAGCC,-0.177
3,GTGTCCTA,-0.06
4,GCGAAGAA,-0.001
5,ATTCCACG,-0.0625
6,TGACACCA,-0.0123
7,CGGCCTGC,-0.233
8,TCGGGTAA,-0.0418
9,GGCGGCAA,-0.159
10,ATGGCCGA,-0.0861
11,GCCTAAAC,-0.101
12,GCGGAGAC,0.0337
13,AGCGCGTG,-0.129
14,AGTAGTGC,-0.0503
15,AACCGCGA,0.123
16,AGGGCGAC,-0.208
17,GGGATGAC,-0.172
18,CCAGCTGG,0.0532
19,TCACCGCA,-0.016
20,GAACATAA,0.192
21,CGTCATAG,-0.082
22,AAGCCGAC,-0.227
23,AGGCCCAC,-0.303
24,AACTTGGA,0.11
25,ACTTCCGA,-0.0181

row,Sequence,PBM E-score
1,CCACCTCC,-0.184
2,ACCGTCAA,-0.00416
3,GAATACGC,-0.106
4,CGTTCAGC,-0.176
5,CCCCCGCG,-0.215
6,CAGCAAAA,0.144
7,GCATTCGA,-0.195
8,TCGTCTCA,-0.135
9,CTCTTACC,0.0116
10,AAAGCTAC,0.00605
11,CACCAACG,-0.126
12,CTCCTCTA,-0.165
13,CTTGCCCA,-0.0497
14,GACGGAAA,0.227
15,ACACGGGG,-0.173
16,AGGAAACC,-0.0526
17,AGTCAGTG,-0.098
18,AGCAGCCT,-0.266
19,AAATTTCG,0.139
20,GGGTAAAA,0.168
21,CCGTAAAA,0.205
22,CCGCGGAC,-0.223
23,ATTGGCCC,-0.285
24,CACCAGCG,-0.144
25,AACTTAAA,0.237

row,Sequence,PBM E-score
1,ATACTACA,0.256
2,AATGAGAG,-0.108
3,AACACTGT,0.0195
4,AACGTTTC,0.0106
5,CGCAGAAA,0.0363
6,GGTAGTGA,-0.0877
7,GGACGACA,-0.00149
8,CAGTAAAG,-0.00942
9,GGTTTACA,0.226
10,AGCGGGGC,-0.268
11,ACCATACG,0.116
12,AGCGAATG,-0.139
13,AAGGCCTG,-0.231
14,ATTAGCTG,0.0588
15,AGTAACGC,-0.0422
16,AAACATGC,0.0189
17,CTCATGAG,0.065
18,GAACTAGC,0.00293
19,CCATAAGA,0.0103
20,GCTTCAGA,-0.158
21,ATCCAAAA,0.149
22,ATCGAAAA,0.238
23,AACCTTCC,-0.158
24,CTGAAATA,0.188
25,GCGTCACC,-0.265

row,Sequence,PBM E-score
1,CAGAAACG,0.0676
2,TAATTACA,0.248
3,AAAGTTTA,0.231
4,GATGAAAC,0.117
5,CGGGCGCA,-0.179
6,CAGTCGTA,-0.0311
7,GGCCCCCC,-0.285
8,GAAATAGA,0.228
9,GTCTCGCA,-0.0684
10,GAAGTACC,0.0554
11,AGACCGTC,-0.227
12,CCTCCGCG,-0.286
13,AAAGTACC,0.0487
14,TATAGAAA,0.238
15,ATAGCCAC,-0.0322
16,CCGATGTA,-0.0673
17,CTTCTACC,-0.16
18,ACATAGGC,0.0136
19,CTGCGGCC,-0.157
20,CTGCGGGC,-0.214
21,ACTATAGT,0.267
22,AATATCAG,0.299
23,GTTCGCAA,0.0647
24,CTTAAAAC,0.226
25,CGCTAGAC,-0.219

row,Sequence,PBM E-score
1,CGCCGGCG,0.11
2,CATTAAAG,0.147
3,ACAACACC,-0.066
4,AATCGGGT,0.185
5,AAAATGAG,0.0599
6,AATGACGG,0.0823
7,CACTGTGC,0.0811
8,CACAGGGG,-0.309
9,ATCGCTAG,-0.0838
10,GGGGAAGA,-0.0775
11,TGCGAACA,0.0792
12,ACTCCAAA,0.153
13,CTTCCCTA,-0.0955
14,ACCATCCC,-0.0578
15,AGTTGCCA,-0.164
16,CCTGTCGA,-0.0611
17,CTGGTAAC,-0.0508
18,AGCCGCTG,-0.164
19,CACCTTCA,-0.0187
20,ACCCGTGA,-0.206
21,CTGCTAAC,0.0163
22,ACCACACC,-0.238
